These results are taken from the supplement of paper PMC11417369.

± gives the standard deviation of the averaged measurements. This is one part of the list.

The subject of this test is PfAP2-LT AP2 domain (GST-tagged). Kind of test: gcPBM binding intensity (ln(normalized median fluorescence intensity)); higher = stronger DNA binding. A digest of the protocol: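 The highest Masliner-normalised natural-log median intensity across replicate spots of either probe orientation is reported as binding intensity. GST-tagged P. falciparum DNA-binding domains expressed in E. coli were applied for 1 h to an Agilent 4 × 180k array of primer-extended double-stranded 36-bp intergenic genomic probes plus negative controls, and bound protein was detected with Alexa488 anti-GST antibody and scanned at 488 nm.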
Take “TTCTTATTTAATGTATCACACACGAGAATAAAAAAT [CACACA_site8992]”: the “gcPBM binding intensity (ln)” value stood at 8.76 ± 0.35. Turning to “ACATTTAATGTTATATGTACATAATATTATAAGTAT [XGTACX_site1393]”, the “gcPBM binding intensity (ln)” value came out at 8.83 ± 0.41. Then “AATGTAAAAGTAAACACACACATATATTTATACATA [CACACA_site7218]”, with 9.36 ± 0.35; and “AGCCATATCTTTTTTGCACACACTACAATAAAACAA [CACACA_site1650]”, with 9.2 ± 0.28.

In the case of “CATATGGCAATAATTACATGCAAAAAAAAAAAAAAA [TGCATGCA_site578]”, the “gcPBM binding intensity (ln)” value amounted to 8.72 ± 0.43. “ACAGACGTTCAAAGGTGTACGCAAAATGAATAATAT [XGTACX_site7565]”: the “gcPBM binding intensity (ln)” value was 9.03 ± 0.49. For the sequence “AAAAAAAAGAAAAACACACACATATATATATATAAT [CACACA_site4707]”, the “gcPBM binding intensity (ln)” value worked out at 9.53 ± 0.42.

Regarding “GTAAATCGACACATACGTACATACATTTATATATAT [XGTACX_site3143]”, the “gcPBM binding intensity (ln)” value was 9.12 ± 0.39. As for “ACATTATATTTGGACTGTACTAATATATTGTTATAT [XGTACX_site5573]”, the “gcPBM binding intensity (ln)” value worked out at 8.91 ± 0.42.

With “TATACATATATATATTGTACATATTATATATATATA [XGTACX_site3286]”, the “gcPBM binding intensity (ln)” value stood at 8.69 ± 0.37.

With “ATATATATATATATATGTACATATTGTATCTTATAC [XGTACX_site5466]”, the “gcPBM binding intensity (ln)” value was determined as 9.72 ± 0.16. Then “TATCTTTTTATTTTTTATTTTTTTTTTATAATTTAC [XGTACX_negctrl_site414]”, with 8.54 ± 0.47; and “CATAAATCAGCCATAACACACATACATATATACATA [CACACA_site8025]”, with 9.28 ± 0.42.

Consider “ACACATATGTCTTCATGTACATAATATATAAATCTT [XGTACX_site3438]”, for which the “gcPBM binding intensity (ln)” value worked out at 8.77 ± 0.4. “TCATTGAAAATTGTTGCACACATAATAATTAAATAT [CACACA_site8554]”: the “gcPBM binding intensity (ln)” value was 8.81 ± 0.33. On to “TCTTGTTTATCAACAGCACACACAACAACAACAACA [CACACA_site8046]”, for which the “gcPBM binding intensity (ln)” value was 9.29 ± 0.4. Take “TAAAGGTAGATATATTGTACATACACACCTATATAA [XGTACX_site6865]”: the “gcPBM binding intensity (ln)” value stood at 8.86 ± 0.4.

For the sequence “TGTTAAAAAATGGATGCACACATTAAATAAAAAGTA [CACACA_site1660]”, the “gcPBM binding intensity (ln)” value came to 8.99 ± 0.44. Then “TATATATATACAGTTGCATGTTGTGTTTAAAATTTT [TGCATGCA_site816]”, with 8.87 ± 0.4. “TTATATTTAGTATATGCACACTTTATGTTTGTTATT [CACACA_site5163]”: the “gcPBM binding intensity (ln)” value came out at 9.1 ± 0.42. With “TATAAATACGAACACACACACCTTATAATTACTACT [CACACA_site7827]”, the “gcPBM binding intensity (ln)” value stood at 9.76 ± 0.11. Then “AAAAACCATTGGCACACACACATAATATATAATATA [CACACA_site4903]”, with 9.77 ± 0.41; and “AAGAAAGGTTAAACATGTACATAAATATTTTACATA [XGTACX_site5024]”, with 8.71 ± 0.52; and “ATACCTAAAAAATATACACACATATATATAAATATA [CACACA_site2580]”, with 9.05 ± 0.42.

“CATCAATGCTAATTATGTACTTACATAAATAACCCT [XGTACX_site968]”: the “gcPBM binding intensity (ln)” value was 8.8 ± 0.37. On to ATGTTAATTAATGAGGTGCATTGAATATTTCAATAA, for which the “gcPBM binding intensity (ln)” value stood at 8.56 ± 0.46. Turning to “TGTATTATCTCTTATGAACACACATTTTTATTTTCA [CACACA_site9107]”, the “gcPBM binding intensity (ln)” value was 8.9 ± 0.45.

Regarding “AATTAAATGTTTCTAAGATATACGACCAATGTATTT [CACACA_negctrl_site1694]”, the “gcPBM binding intensity (ln)” value amounted to 8.54 ± 0.42.

Turning to “AATTAATGGGTACATACACACATATATACATACATA [CACACA_site742]”, the “gcPBM binding intensity (ln)” value came to 9.16 ± 0.44.

In the case of “TTTATATTTTTTTTTGCACACTTTAAAAAAATATAT [CACACA_site1146]”, the “gcPBM binding intensity (ln)” value turned out to be 8.71 ± 0.42. In the case of “TATATATTACATAAAACACACAAAAAAAAAATTAAA [CACACA_site3882]”, the “gcPBM binding intensity (ln)” value is 8.79 ± 0.58.

With “AAATAAATTGAAGATACATGCATATTTTTTTTTTAT [TGCATGCA_site686]”, the “gcPBM binding intensity (ln)” value came to 8.57 ± 0.39. Then “GAATATTTATGATGAACTATTAATTAATTTTACATA [GTGCAC_negctrl_site353]”, with 8.35 ± 0.47. Then “ATGTAGAGTAATAGTTGTACAAGGTGTATATCTCAT [XGTACX_site6370]”, with 9.29 ± 0.57.

Take “TGGTGAAAAATATAAATATAAATAAATATATATATA [CACACA_negctrl_site1725]”: the “gcPBM binding intensity (ln)” value came out at 8.68 ± 0.45. As to “AAAAAAAAAAACTTTGCATGTAATAATAAAAAAAAA [TGCATGCA_site81]”, the “gcPBM binding intensity (ln)” value was 8.4 ± 0.5. “AGAAGAAAACAAAACACACACATATATCTTAATATA [CACACA_site2231]”: the “gcPBM binding intensity (ln)” value was 9.39 ± 0.41. For the sequence ATGATCTGTTTGTTTGTGCACATATATATATATTAA, the “gcPBM binding intensity (ln)” value came out at 9.16 ± 0.47. Take “AGAGTTAAACGATATATATAAATATATATATATATA [GTGCAC_negctrl_site316]”: the “gcPBM binding intensity (ln)” value was found to be 9.38 ± 0.3. Then “AAAAAAAAAAACGACAGTACAATTATAATTTATATT [XGTACX_site2365]”, with 8.73 ± 0.51. Then “AGATCATAATATTATACACACATTAGATATAGGTAA [CACACA_site6809]”, with 9.02 ± 0.42; and “ATGTCTTAAAAATTAAAACACACGTTCACTTTCATA [CACACA_site3385]”, with 8.97 ± 0.4; and “AAAAGGAAGATATATACACACATACAAATATTTATA [CACACA_site7093]”, with 9.14 ± 0.35. Then “ATAAATAAATAAAAGCGTACATATATATAAAATATA [XGTACX_site8107]”, with 8.76 ± 0.55; and “TATCACCCACCATGAAGTACATATTACCATTTGATG [XGTACX_site845]”, with 9.01 ± 0.4.
